PMC4336329 (PLoS ONE, 2015)
Screen size: about 310,000 compounds; about 2,200 (0.71%) showed an effect of 50% or more. The effect is printed as a negative number. This is one part of the list.

target: human ether-à-go-go-related gene (hERG) potassium channel (human, UniProt Q12809); assay: primary screen, population patch clamp on CHO cells stably expressing hERG
Sequence (Q12809 whole entry, looked up): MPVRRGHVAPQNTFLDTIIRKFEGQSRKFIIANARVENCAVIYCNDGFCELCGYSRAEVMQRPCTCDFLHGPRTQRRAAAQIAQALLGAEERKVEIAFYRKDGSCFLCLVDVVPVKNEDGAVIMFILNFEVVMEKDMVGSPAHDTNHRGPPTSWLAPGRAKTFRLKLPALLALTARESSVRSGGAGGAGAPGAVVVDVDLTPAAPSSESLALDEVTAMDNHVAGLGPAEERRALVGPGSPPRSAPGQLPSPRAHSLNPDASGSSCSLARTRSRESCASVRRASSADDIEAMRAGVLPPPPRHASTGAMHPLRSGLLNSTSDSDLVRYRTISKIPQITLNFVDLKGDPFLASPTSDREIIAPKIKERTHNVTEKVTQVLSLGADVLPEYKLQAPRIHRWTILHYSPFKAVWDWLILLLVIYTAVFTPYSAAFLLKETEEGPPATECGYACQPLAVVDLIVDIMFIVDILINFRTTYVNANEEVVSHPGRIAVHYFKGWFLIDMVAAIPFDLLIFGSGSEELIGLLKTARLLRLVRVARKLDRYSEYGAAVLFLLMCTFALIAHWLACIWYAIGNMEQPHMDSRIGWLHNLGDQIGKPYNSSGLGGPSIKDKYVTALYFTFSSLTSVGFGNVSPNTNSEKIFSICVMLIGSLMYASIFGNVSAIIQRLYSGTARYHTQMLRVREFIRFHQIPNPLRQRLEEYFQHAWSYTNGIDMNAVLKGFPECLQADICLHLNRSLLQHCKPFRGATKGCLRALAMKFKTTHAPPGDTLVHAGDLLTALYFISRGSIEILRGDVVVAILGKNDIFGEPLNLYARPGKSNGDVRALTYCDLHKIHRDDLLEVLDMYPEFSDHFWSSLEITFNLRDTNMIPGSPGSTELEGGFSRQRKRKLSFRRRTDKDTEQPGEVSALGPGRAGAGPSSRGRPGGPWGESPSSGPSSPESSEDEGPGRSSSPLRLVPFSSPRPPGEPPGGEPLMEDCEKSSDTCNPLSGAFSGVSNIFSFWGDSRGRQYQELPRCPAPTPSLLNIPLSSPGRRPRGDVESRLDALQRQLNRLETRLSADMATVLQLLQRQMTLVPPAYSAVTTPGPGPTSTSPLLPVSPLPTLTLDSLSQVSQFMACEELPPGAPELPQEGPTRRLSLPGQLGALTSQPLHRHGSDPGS

| SMILES | hERG current change (%, negative = inhibition) at 1uM |
| --- | --- |
| CCOC(=O)N1CCN(CC(=O)Nc2ccc(Oc3ccccc3)cc2)CC1 | 1.41% |
| CCOC(=O)c1cccc(NC(=O)CCc2c(C)nc3ncnn3c2C)c1 | 8.47% |
| Cc1onc(-c2c(Cl)cccc2Cl)c1C(=O)N1C(C)CCCC1C (stereo not drawn) | 3.74% |
| O=c1ccn(-c2cccc(C(F)(F)F)c2)nc1-c1ccn(-c2ccccc2F)n1 | -14.6% |
| O=[N+]([O-])c1nn(-c2cccc(Cl)c2)n(O)c1=NCc1cccnc1 | 9.69% |
| O=C(NCc1ccon1)C1CCC(=O)N(Cc2cccc(C(F)(F)F)c2)C1 (stereo not drawn) | 20.8% |
| O=C(CSc1nc2ccccc2c(=O)n1Cc1ccco1)N1CCN(c2ccccc2)CC1 | -83.6% |
| COc1cc(S(=O)(=O)N2CCN(Cc3cccs3)CC2)ccc1NC(C)=O | 8.36% |
| COc1ccc(CNCCC(c2ccccc2)c2ccc3c(c2)OCO3)cc1.Cl (stereo not drawn) | -68.7% |
| O=C(Nc1ccc2oc(-c3ccncc3)nc2c1)c1ccc2c(c1)OCO2 | 10.9% |
| O=c1cccc2n1CC1CC2CN(Cc2c(F)cccc2Cl)C1 (stereo not drawn) | 7.51% |
| O=C(Nc1ccc2c(c1)Cc1ccccc1-2)c1ccc(Br)o1 | 5.67% |
| Cc1ccccc1OCC(=O)NNC(=O)c1ccc(-n2cncn2)c([N+](=O)[O-])c1 | 10.4% |
| O=C(Nc1ccc(Oc2ccccc2)cc1)c1ccc(Cn2c(=O)[nH]c3ccsc3c2=O)cc1 | 5.52% |
| COC(=O)[C@@H]1C[C@@]2(O)[C@H](O)[C@H](O)[C@H](O)C[C@H]2N1CC1CC1 | 4.17% |
| Cc1cccc(N(CC(=O)NC(C)C)C(=O)c2ccc(N3CCCC3)nc2)c1 | 10.6% |
| CC(C)NC(=O)CCCc1ccccc1 | 3.52% |
| O=C1COc2ccc(C(=O)COC(=O)CNC(=O)C3CCCCC3)cc2N1 | -0.474% |
| O=C(NCCCn1ccnc1)c1cccc(S(=O)(=O)NCc2ccccc2)c1 | -0.842% |
| O=C(COc1ccc2c3c(c(=O)oc2c1)CCC3)N[C@@H](Cc1ccccc1)C(=O)O | 14.1% |
| COc1cccc(NC2=NCC(=O)N2Cc2cccs2)c1.Cl | 15.8% |

| SMILES | hERG current change (%, negative = inhibition) at 1uM |
| --- | --- |
| CCC(C)(C)NC(=O)C(c1ccccn1)N(C(=O)c1csnn1)c1ccccc1 (stereo not drawn) | 9.26% |
| O=C(Nn1c(=O)[nH]c2ccsc2c1=O)c1ccccc1 | 17.3% |
| O=c1c(C(c2ccc(Cl)cc2)c2c(O)nc3n(c2=O)CCS3)c(O)nc2n1CCS2 | 10.1% |
| COc1ccc(NP(=O)(Oc2cccc(C)c2)Oc2cccc(C)c2)cc1OC | 8.04% |
| Cc1cc(C)c2oc(C(=O)NC3CCS(=O)(=O)C3)cc(=O)c2c1 (stereo not drawn) | -12.5% |
| Cc1ccc(C(=O)N/N=C2/NC(=O)CC(C(=O)Nc3ccccc3)S2)cc1 (stereo not drawn) | 3.96% |
| Cc1ccccc1SC1CCN(C(=O)C2CCC(=O)N(C3CC3)C2)CC1 (stereo not drawn) | 13.4% |
| O=C(N/N=C/c1ccc(O)cc1)c1cc(-c2ccc3c(c2)OCO3)n[nH]1 | 11.5% |
| O=C(NC1CC1)C1=C[C@H](c2ccccc2)C[C@H](OCc2ccc(CO)cc2)O1 | 1.4% |
| COc1ccc(CCNC(=O)C2CC(=O)N(CCc3ccc(C)cc3)C2)cc1OC (stereo not drawn) | 14.9% |
| Cn1cncc1C#Cc1ccc2cc(C3(O)CCCCC3)oc(=O)c2c1 | 14.1% |
| C=CCNC(=O)CSc1nnc(-c2ccc(S(=O)(=O)N3CCCC3)cc2)n1C | 8.16% |
| O=Nc1c(O)n(Cc2cccc(C(F)(F)F)c2)c2ccccc12 | 6.7% |
| CCOC(=O)C(=CNNc1ccsc1C(=O)OC)C(=O)OCC | 14.3% |
| CCc1ccc(Nc2n[n+](-c3ccccc3)c(/C=C/c3ccccc3)s2)cc1.[Cl-] | 3.19% |
| N#C/C(=N\Nc1ccccc1)C(=N)N1CCOCC1 | 11.4% |
| CCc1cc(/C(Cc2ccccn2)=N\Nc2ccccc2)c(O)cc1O | 16.4% |
| C=C(C)Cn1c(SCC(=O)N/N=C/c2ccccc2OCC(=O)O)nnc1-c1ccc(Br)cc1 | 6.35% |
| CN(C)c1ccc(/C=C/c2ccc3ccccc3[n+]2C)cc1.[I-] | -22.5% |
| O=[N+]([O-])c1ccc(/C=N/N2CCN(Cc3ccccc3)CC2)cc1 | -2.82% |
| Cc1nc(-c2ccc(NC(=O)c3ccccc3)cc2)cs1 | 4.13% |
